Results published in PubChem BioAssay (NCI).
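48-hour exposure; five concentrations; linearly interpolated endpoints. Here, GI50 denotes the concentration required for 50% inhibition of growth. TGI is the concentration that stops growth completely.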

Each compound was assayed on NCI-H322M lung (assay: growth of human tumour cells (NCI), 48 h).
In the case of `CCN(CC)c1ccnc(CNCCSC(c2ccccc2)(c2ccccc2)c2ccc(OC)cc2)c1`, the GI50 is reported as 3.87 µM and the TGI is reported as 15.6 µM.
With `CSc1nc(-c2cccc(C)c2)c2cc(-c3ccccc3)n(C)c2n1` the GI50 was 22 µM and the TGI was > 100 µM.
Work on `C[C@H]1CN(C(=O)c2ccc3c(NNC(=O)c4ccncn4)nc4cc(F)c(F)cc4n23)CCN1` yielded a GI50 of 1.34 µM and a TGI of 19 µM.
Work on `Nc1cc(-c2c[nH]c3ccc(F)cc23)nc2cc(-c3c[nH]c4ccccc34)nn12` yielded a GI50 of 6.05 µM and a TGI of 19.3 µM.
